Measurements as given in the supplement of paper PMC7826260.
The list shows a part of the results. The data describe in vitro nicking of single-stranded DNA by Rep domains (1 h at 37 °C, 3 µM enzyme); the outer parts of the 90-letter strands are left off. A value is the log2 ratio of uncut reads to the pool without enzyme; strong cutting gives strongly negative numbers. There is no active / inactive call. Counts are relative to all reads; where an enzyme cuts many sequences, the uncut ones exceed 0.

Columns and labels:
Assay in all cases: uncleaved DNA left, log2 of reads against the no-enzyme library (log2 ratio); higher = less cleavage (more negative = more Rep cleavage of the k-mer); sequences stand for … in CTCGTCCG…ACCGGAGA
[1] = system: T1, Rep nickase domain of Muscovy duck circovirus
T1 sequence (residues 1-111 of Rep, tag left off): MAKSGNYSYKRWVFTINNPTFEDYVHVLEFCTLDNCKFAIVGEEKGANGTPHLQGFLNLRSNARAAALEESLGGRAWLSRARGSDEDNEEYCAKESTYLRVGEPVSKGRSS
Method: (§1)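 A pool of 90-nt single-stranded DNAs with seven random bases just before the constant AC of the nick site (name = the seven bases) was cut by 3 µM recombinant His6-SUMO-tagged Rep nickase domain (300 nM DNA, 50 mM HEPES pH 8.0, 50 mM NaCl, 1 mM MnCl2, 1 h, 37 °C, three replicates). Uncut DNA was amplified and sequenced.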

[2] = system: T2, Rep nickase domain of banana bunchy top virus
T2 sequence (residues 1-94 of Rep, tag left off): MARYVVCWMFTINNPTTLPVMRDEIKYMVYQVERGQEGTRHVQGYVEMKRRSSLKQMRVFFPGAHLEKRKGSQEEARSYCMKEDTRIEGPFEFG
Method: as §1

[3] = system: T3, Rep nickase domain of cabbage leaf curl virus
T3 sequence (residues 1-116 of Rep, tag left off): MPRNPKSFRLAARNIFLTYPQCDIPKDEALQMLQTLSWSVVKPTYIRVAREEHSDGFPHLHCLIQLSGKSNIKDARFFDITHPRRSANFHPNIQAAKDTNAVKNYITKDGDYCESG
Method: as §1

[4] = system: T4, Rep nickase domain of chickpea chlorotic dwarf virus
T4 sequence (residues 1-124 of Rep, tag left off): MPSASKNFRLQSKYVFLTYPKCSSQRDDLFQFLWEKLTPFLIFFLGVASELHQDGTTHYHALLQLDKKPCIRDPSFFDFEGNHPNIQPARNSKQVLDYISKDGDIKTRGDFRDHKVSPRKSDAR
Method: as §1

[5] = system: T5, Rep nickase domain of faba bean necrotic yellows virus
T5 sequence (residues 1-98 of Rep, tag left off): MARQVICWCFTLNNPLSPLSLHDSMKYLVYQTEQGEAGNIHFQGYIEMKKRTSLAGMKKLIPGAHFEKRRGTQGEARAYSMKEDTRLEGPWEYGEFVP
Method: as §1

[6] = system: T6, Rep nickase domain of maize striate mosaic virus
T6 sequence (residues 1-117 of Rep, tag left off): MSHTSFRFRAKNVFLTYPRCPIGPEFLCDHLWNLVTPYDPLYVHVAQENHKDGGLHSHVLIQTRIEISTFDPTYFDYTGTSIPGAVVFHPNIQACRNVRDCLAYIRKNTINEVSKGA
Method: as §1

[7] = system: T7, Rep nickase domain of porcine circovirus 2
T7 sequence (residues 2-116 of Rep, tag left off): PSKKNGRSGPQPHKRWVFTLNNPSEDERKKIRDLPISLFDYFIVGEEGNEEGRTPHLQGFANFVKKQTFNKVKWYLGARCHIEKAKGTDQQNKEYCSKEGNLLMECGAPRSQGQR
Method: as §1

[8] = system: T8, Rep nickase domain of tomato golden mosaic virus
T8 sequence (residues 1-124 of Rep, tag left off): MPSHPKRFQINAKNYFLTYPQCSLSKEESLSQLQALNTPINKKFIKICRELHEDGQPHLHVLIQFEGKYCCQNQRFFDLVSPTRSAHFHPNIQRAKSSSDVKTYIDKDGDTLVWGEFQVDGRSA
Method: as §1

[9] = system: T9, Rep nickase domain of tomato yellow leaf curl virus
T9 sequence (residues 1-136 of Rep, tag left off): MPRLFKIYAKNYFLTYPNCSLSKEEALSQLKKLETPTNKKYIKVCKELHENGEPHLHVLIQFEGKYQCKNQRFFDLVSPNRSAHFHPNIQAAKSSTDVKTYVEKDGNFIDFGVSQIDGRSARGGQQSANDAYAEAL
Method: as §1

[10] = system: T10, Rep nickase domain of wheat dwarf virus
T10 sequence (residues 1-137 of Rep, tag left off): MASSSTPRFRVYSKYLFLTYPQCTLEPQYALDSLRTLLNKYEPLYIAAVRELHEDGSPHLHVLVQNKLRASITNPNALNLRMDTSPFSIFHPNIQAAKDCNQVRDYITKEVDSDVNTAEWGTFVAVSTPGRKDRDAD
Method: as §1

Sequence | uncleaved DNA left (log2) [1] | uncleaved DNA left (log2) [2] | uncleaved DNA left (log2) [3] | uncleaved DNA left (log2) [4] | uncleaved DNA left (log2) [5] | uncleaved DNA left (log2) [6] | uncleaved DNA left (log2) [7] | uncleaved DNA left (log2) [8] | uncleaved DNA left (log2) [9] | uncleaved DNA left (log2) [10]
TGGTTCT | -0.706 | -0.0862 | 0.188 | -0.839 | -0.0357 | 0.689 | -2.76 | -0.114 | -0.0473 | -0.0722
AGAACTT | -0.0652 | -0.026 | 0.327 | 0.445 | -0.0745 | 1.3 | -0.263 | -0.126 | -0.121 | 0.0192
GCTTACA | 0.0213 | 0.0734 | 0.0677 | -1.12 | -0.0315 | 0.407 | 0.0474 | 0.108 | 0.0894 | 0.0654
AAGAATT | 0.107 | -1.41 | -0.137 | -1.41 | -0.355 | 1.02 | -3.64 | -0.0256 | 0.0397 | 0.11
TCAATCC | 0.0633 | 0.0109 | -0.00847 | 0.178 | 0.0192 | 0.673 | 0.0489 | -0.0926 | 0.0886 | 0.033
GCTCAAC | -0.0844 | 0.0525 | 0.0491 | -0.315 | 0.00374 | 0.14 | 0.0317 | -0.0748 | -0.0614 | 0.0326
GTCCCGG | -0.0574 | 0.00512 | 0.453 | 1.23 | -0.0388 | 2.06 | 0.184 | 0.139 | -0.00643 | 0.0471
GGCCGAG | 0.107 | 0.2 | 0.991 | 2.17 | 0.0762 | 2.31 | 0.262 | 0.222 | 0.179 | 0.22
ACGAGTA | 0.0694 | -0.119 | -0.195 | -0.859 | 0.0947 | -0.736 | -0.226 | 0.0714 | -0.165 | -0.101
TCCATGT | -0.161 | -0.118 | -0.134 | -0.405 | -0.121 | -0.996 | -0.0866 | -0.0685 | -0.0391 | -0.176
CGGCACA | 0.206 | 0.131 | 0.157 | 0.536 | 0.0146 | 0.966 | 0.00349 | -0.0227 | 0.0504 | 0.199
CACCGGA | 0.0149 | 0.0962 | 0.0368 | 0.362 | 0.0523 | -0.00741 | 0.0738 | 0.0528 | 0.0912 | 0.0243
CTTGTTG | 0.0138 | 0.0467 | -0.71 | -0.696 | 0.0685 | -1.15 | 0.0568 | -0.122 | -0.0056 | -0.298
GTACCAC | 0.0486 | 0.171 | 0.331 | 0.828 | -0.0722 | 1.42 | 0.0173 | 0.143 | 0.223 | 0.185
GTACACC | 0.0185 | 0.105 | 0.333 | 0.785 | 0.00431 | 1.49 | -0.0154 | -0.0219 | 0.0747 | 0.144
AATGGTT | 0.096 | 0.0575 | 0.464 | 1.78 | 0.00543 | 1.96 | -0.00585 | 0.172 | -0.0886 | 0.0832
GGTTATT | -2.46 | -0.55 | 0.404 | 0.68 | -0.139 | 1.87 | -2.47 | -0.16 | 0.134 | -0.0416
TGCTCTC | -0.0275 | -0.142 | 0.209 | 0.164 | -0.107 | 0.497 | -0.121 | -0.0783 | -0.174 | -0.15
GGCACTG | -0.0434 | -0.0158 | -0.0399 | 0.624 | -0.129 | 1.63 | 0.0455 | -0.0183 | -0.0274 | 0.0522
GAAATTT | -0.147 | -0.105 | -2.74 | -2.47 | -0.0416 | 0.433 | -1.83 | -0.381 | -0.0123 | -1.33
CGGCGAC | -0.0088 | -0.0602 | 0.0747 | 0.587 | 0.141 | 0.794 | 0.0838 | -0.16 | -0.0641 | 0.0265
CTGATAC | -0.128 | -0.00799 | -0.0374 | -0.572 | -0.00328 | -0.605 | -0.236 | 0.0362 | -0.0899 | -0.0451
GGCTACG | 0.072 | 0.0444 | -0.00914 | -0.0965 | -0.0195 | -0.131 | 0.197 | 0.136 | 0.00709 | 0.0266
AGCACAT | 0.0903 | 0.172 | 0.218 | 0.841 | 0.0292 | 1.28 | -0.0442 | 0.0209 | 0.0593 | 0.115
CACATTC | 0.0397 | 0.00253 | -0.409 | -0.407 | 0.0491 | -1.03 | 0.139 | -0.094 | -0.0738 | -0.0843
ATCTCTG | -0.0604 | -0.0574 | -0.17 | 0.0803 | -0.0604 | -0.148 | -0.0188 | -0.0957 | -0.123 | -0.0455
GGACTAT | 0.183 | 0.158 | 0.957 | 2 | 0.0431 | 2.29 | 0.252 | 0.115 | 0.0875 | 0.309
ATTCTCT | -0.451 | -0.108 | 0.00938 | -2.01 | 0.102 | -0.504 | -1.24 | -0.0196 | 0.0626 | 0.0649
TATAGGC | 0.0393 | -0.0959 | 0.288 | 0.495 | 0.0661 | -0.038 | 0.0549 | -0.00235 | -0.0528 | -0.0351
CGTGCGT | -0.152 | -0.248 | -0.85 | -0.678 | -0.0826 | -1.06 | -0.0383 | -0.18 | -0.118 | -0.25
